Test results published in a collection of fitness landscapes (doi:10.1016/j.celrep.2020.107928).
Over roughly 81,000 sequences, “one-hybrid fitness for binding parS DNA” has its median near -0.17; the highest 2% begin near 0.51. The list shows a part of the results.

B1: Caulobacter ParB omega fusion; a variant is named by its letters at X, in order, B8GW30 (parent)
chain: MESVVVGEPGMSEGRRGLGRGLSALLGEVDAAPAQAPGEQLGGSREAPIEILQRNPDQPRRTFREEDLEDLSNSIREKGVLQPILVRPSPDTAGEYQIVAGERAWRAAQRAGLKTVPIMVRELDDLAVLEIGIIENVQRADLNVLEEALSYKVLMEKFERTQENIAQTIGKSXSHVANXMRLLXLPDEVQSYLVSGELTAXHARAIAAAADPVALAKQIIEGGLSVRETEALARKAPNLSAGKSKGGRPPRVKDTDTQALESDLSSVLGLDVSIDHRGSTGTLTITYATLEQLDDLCNRLTRGI

Variants of: B1
Experiment: one-hybrid fitness for binding parS DNA (scaled: cognate 1, non-cognate 0); higher = stronger binding
Details: with parS DNA site
Outline: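 Selection: bacterial one-hybrid in E. coli USO, HIS3 reporter with the site 19 bp from the promoter, 48 hours at 37°C on M9-minus-histidine plus 0.1 mM IPTG and 5 mM 3-AT. Libraries were Caulobacter ParB with four randomised specificity codons, sequenced on Illumina before and after selection. Fitness is the rescaled log change in variant-to-wild-type read ratio, anchored to the cognate and non-cognate sites.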

Row | Variant | one-hybrid fitness for binding parS DNA
1 | VVKQ | ≤ 0.2
2 | HTWN | ≤ 0.2
3 | RTCV | ≤ 0.2
4 | IQRR | ≤ 0.2
5 | SKPP | ≤ 0.2
6 | FHPP | ≤ 0.2
7 | AQIR | ≤ 0.2
8 | EDKV | ≤ 0.2
9 | ASLG | ≤ 0.2
10 | QPCI | ≤ 0.2
11 | YKKG | ≤ 0.2
12 | SSQE | ≤ 0.2
13 | EKET | ≤ 0.2
14 | HCSS | ≤ 0.2
15 | HHVD | ≤ 0.2
16 | RLFE | ≤ 0.2
17 | AAKT | ≤ 0.2
18 | ITRR | ≤ 0.2
19 | YCHA | ≤ 0.2
20 | VGGF | ≤ 0.2
21 | HSKS | ≤ 0.2
22 | AFFG | ≤ 0.2
23 | YQLN | ≤ 0.2
24 | GVCW | ≤ 0.2
25 | GPNC | ≤ 0.2

Row | Variant | one-hybrid fitness for binding parS DNA
26 | MASA | ≤ 0.2
27 | SDPI | ≤ 0.2
28 | SDPK | ≤ 0.2
29 | HMAV | ≤ 0.2
30 | LGPM | ≤ 0.2
31 | GRPA | ≤ 0.2
32 | CNTC | ≤ 0.2
33 | NWYR | ≤ 0.2
34 | PAKG | ≤ 0.2
35 | ETAK | ≤ 0.2
36 | QDWY | ≤ 0.2
37 | FIRR | ≤ 0.2
38 | IALD | ≤ 0.2
39 | WTPR | ≤ 0.2
40 | NKSC | ≤ 0.2
41 | YDGM | ≤ 0.2
42 | VTKP | ≤ 0.2
43 | VDTF | ≤ 0.2
44 | TSLA | ≤ 0.2
45 | PKRE | ≤ 0.2
46 | PGAD | ≤ 0.2
47 | QLEH | ≤ 0.2
48 | FSTA | ≤ 0.2
49 | AAIY | ≤ 0.2
50 | LKPY | ≤ 0.2

Row | Variant | one-hybrid fitness for binding parS DNA
51 | MFTT | ≤ 0.2
52 | SFRT | ≤ 0.2
53 | HHLC | ≤ 0.2
54 | PYMG | ≤ 0.2
55 | VLKK | ≤ 0.2
56 | KHCR | ≤ 0.2
57 | PPET | ≤ 0.2
58 | ANKK | ≤ 0.2
59 | NAQS | ≤ 0.2
60 | VNLK | ≤ 0.2
61 | QDLP | ≤ 0.2
62 | EDCR | ≤ 0.2
63 | HDST | ≤ 0.2
64 | IGMD | ≤ 0.2
65 | HPLM | ≤ 0.2
66 | EIYS | ≤ 0.2
67 | LHAT | ≤ 0.2
68 | QMWP | ≤ 0.2
69 | QMER | ≤ 0.2
70 | VRQG | ≤ 0.2
71 | TQAQ | ≤ 0.2
72 | MGMA | ≤ 0.2
73 | VVGI | ≤ 0.2
74 | WDTA | ≤ 0.2
75 | NWNG | ≤ 0.2

Row | Variant | one-hybrid fitness for binding parS DNA
76 | RERS | 0.529
77 | KDLL | ≤ 0.2
78 | FYSG | ≤ 0.2
79 | FYHC | ≤ 0.2
80 | QIQF | ≤ 0.2
81 | WAKV | ≤ 0.2
82 | RFKY | 0.569
83 | IHYT | ≤ 0.2
84 | HNRE | ≤ 0.2
85 | PKPK | ≤ 0.2
86 | QPIS | ≤ 0.2
87 | AWLF | ≤ 0.2
88 | SEVT | ≤ 0.2
89 | HRKK | ≤ 0.2
90 | VYRW | ≤ 0.2
91 | RKPI | ≤ 0.2
92 | DAYS | ≤ 0.2
93 | HQTS | ≤ 0.2
94 | QMDT | ≤ 0.2
95 | TSPA | ≤ 0.2
96 | SGHT | ≤ 0.2
97 | RNLD | ≤ 0.2
